These results are taken from the antibiotic and cytotoxicity screens of Wong et al. (2023).

Some of the results follow.

One experiment concerns HSkMC. Kind of experiment: cytotoxicity call (relative viability < 0.9). The settings on record: 10 µM.
In another experiment the test system is HepG2. In words: cytotoxicity call (relative viability < 0.9). The settings on record: 10 µM.
Another experiment has as its system S. aureus RN4220. Kind of experiment: growth inhibition call (relative growth <= 0.2). The settings on record: 50 µM.

`Clc1ccc(COC(Cn2ccnc2)c2ccc(Cl)cc2Cl)cc1.O=[N+]([O-])O` (centres undefined): in the experiment with HSkMC, the cytotoxicity call was “inactive”. Moreover, the cytotoxicity call in the experiment with HepG2 is “active”. The growth inhibition call in the experiment with S. aureus RN4220 was “inactive”.

Turning to `COc1ccc(NC(=O)N(C)C[C@@H]2OCCCC[C@@H](C)Oc3ccc(NC(=O)NC4CCCCC4)cc3C(=O)N([C@H](C)CO)C[C@@H]2C)cc1`, the cytotoxicity call in the experiment with HSkMC and in the experiment on HepG2 was “inactive” throughout. Also, the growth inhibition call in the experiment with S. aureus RN4220 was “inactive”.

For `Nc1cc(Cl)ncn1`, the cytotoxicity call with HSkMC and in the experiment with HepG2 was “inactive” in each case. Besides, in the experiment with S. aureus RN4220, the growth inhibition call was “inactive”.

For the compound `CC[C@@H](C)NC(=O)Cn1cnc2c1c(=O)n(C)c(=O)n2C`, the cytotoxicity call with HSkMC and with HepG2 was “inactive” throughout. Besides, in the experiment on S. aureus RN4220, the growth inhibition call was “inactive”.

As to `COc1ccc(S(=O)(=O)Nc2ccc3c(c2)C(=O)N([C@H](C)CO)C[C@H](C)[C@@H](CN(C)S(=O)(=O)c2cn(C)cn2)OCCCC[C@@H](C)O3)cc1`, the cytotoxicity call in the experiment on HSkMC and in the experiment on HepG2 was “inactive” in each case. Further, the growth inhibition call in the experiment with S. aureus RN4220 is “inactive”.

Turning to `C#CCCC(=O)NO`, the cytotoxicity call with HSkMC and in the experiment on HepG2 was “inactive” in each case. For the same compound, in the experiment on S. aureus RN4220, the growth inhibition call was “inactive”.

For `C[C@H](CO)N1C[C@H](C)[C@H](CN(C)S(C)(=O)=O)OCc2ccccc2-c2c(n(C)c3ccccc23)C1=O`, the cytotoxicity call with HSkMC and in the experiment with HepG2 was “inactive” throughout. In addition, the growth inhibition call with S. aureus RN4220 is “inactive”.

On to `C[C@@H]1CN([C@@H](C)CO)C(=O)c2cc(NC(=O)Cn3cnnn3)ccc2O[C@@H]1CN(C)S(=O)(=O)c1cn(C)cn1`, for which the cytotoxicity call in the experiment with HSkMC and with HepG2 was “inactive” each time. Moreover, the growth inhibition call with S. aureus RN4220 was “inactive”.

Turning to `CC1=C(/C=C/C(C)=C/C=C/C(C)=C/C=C/C=C(C)/C=C/C=C(C)/C=C/C2=C(C)CCCC2(C)C)C(C)(C)CCC1`, the cytotoxicity call in the experiment on HSkMC and in the experiment on HepG2 was “inactive” throughout. Moreover, the growth inhibition call with S. aureus RN4220 was “inactive”.

In the case of `COc1ccc(NC(=O)N(C)C[C@@H]2Oc3ccc(NC(=O)CCN4CCOCC4)cc3C(=O)N([C@H](C)CO)C[C@H]2C)cc1`, the cytotoxicity call with HSkMC and in the experiment on HepG2 was “inactive” in each case. For the same compound, in the experiment on S. aureus RN4220, the growth inhibition call is “inactive”.

`C[C@@H]1CN([C@H](C)CO)C(=O)Cc2cc(NC(=O)Cc3ccccc3)ccc2O[C@@H]1CN(C)Cc1ccc(Oc2ccccc2)cc1`: the cytotoxicity call in the experiment on HSkMC was “inactive”. The cytotoxicity call with HepG2 was “active”. Further, the growth inhibition call in the experiment with S. aureus RN4220 is “inactive”.

In the case of `Cc1noc(C)c1NC(=O)Nc1ccc2c(c1)C(=O)N([C@@H](C)CO)C[C@@H](C)[C@@H](CN(C)S(=O)(=O)c1cn(C)cn1)O2`, the cytotoxicity call with HSkMC and in the experiment with HepG2 was “inactive” in each case. Further, the growth inhibition call in the experiment with S. aureus RN4220 is “inactive”.

On to `C[C@@H]1CN([C@H](C)CO)C(=O)c2cc(NC(=O)CCCN(C)C)ccc2O[C@@H]1CN(C)C(=O)Nc1ccc2c(c1)OCO2`, for which the cytotoxicity call in the experiment on HSkMC and in the experiment with HepG2 was “inactive” in each case. Besides, the growth inhibition call in the experiment on S. aureus RN4220 is “inactive”.

`COc1cccc(S(=O)(=O)Nc2ccc3c(c2)[C@@H]2C[C@H](CC(=O)NCCc4ccccc4)O[C@@H](CO)[C@@H]2O3)c1`: the cytotoxicity call in the experiment with HSkMC and in the experiment on HepG2 was “inactive” in each case. Also, in the experiment with S. aureus RN4220, the growth inhibition call was “inactive”.

As for `C[C@@H]1CCCCO[C@H](CN(C)Cc2ccccc2)[C@@H](C)CN([C@@H](C)CO)C(=O)c2cc(NC(=O)Nc3cccc4ccccc34)ccc2O1`, the cytotoxicity call in the experiment on HSkMC and in the experiment with HepG2 was “active” throughout. In addition, the growth inhibition call with S. aureus RN4220 was “inactive”.

As for `CCN1CCN(Cc2ccc(C(=O)Nc3ccc(C)c(Oc4ccc5c(c4)CC(=O)N5)c3)cc2C(F)(F)F)CC1`, the cytotoxicity call with HSkMC and in the experiment with HepG2 was “active” throughout. For the same compound, the growth inhibition call in the experiment with S. aureus RN4220 was “inactive”.

As for `CCCN(C)C[C@@H]1OCCCC[C@@H](C)Oc2ccc(NC(=O)CCC(F)(F)F)cc2C(=O)N([C@H](C)CO)C[C@@H]1C`, the cytotoxicity call with HSkMC and in the experiment on HepG2 was “inactive” throughout. The growth inhibition call with S. aureus RN4220 was “inactive”.

Consider `COC(=O)[C@H]1c2cc3c(c(O)c2[C@@H](O[C@@H]2O[C@H](C)[C@H](OC)[C@](C)(OC)[C@@H]2OC)C[C@@]1(C)O)C(=O)c1c(O)cc2c(c1C3=O)O[C@H]1O[C@@]2(C)[C@@H](O)[C@H](N(C)C)[C@@H]1O`, for which the cytotoxicity call in the experiment with HSkMC was “inactive”. Also, the cytotoxicity call in the experiment on HepG2 was “active”. For the same compound, the growth inhibition call in the experiment with S. aureus RN4220 was “active”.

Take `COc1ccc(CN(C)C[C@H]2OCCCC[C@@H](C)Oc3ccc(NC(=O)CCC(F)(F)F)cc3C(=O)N([C@@H](C)CO)C[C@@H]2C)cc1`: the cytotoxicity call in the experiment with HSkMC and with HepG2 was “inactive” each time. Besides, the growth inhibition call with S. aureus RN4220 was “inactive”.

For `COc1ccc(NC(=O)N(C)C[C@H]2Oc3ccc(NS(C)(=O)=O)cc3CC(=O)N([C@@H](C)CO)C[C@H]2C)cc1`, the cytotoxicity call in the experiment on HSkMC and in the experiment with HepG2 was “inactive” each time. In the experiment with S. aureus RN4220, the growth inhibition call is “inactive”.

For `Cc1ccc(S(=O)(=O)Nc2ccc3c(c2)C(=O)N([C@H](C)CO)C[C@@H](C)[C@@H](CN(C)S(=O)(=O)c2ccccc2)O3)cc1`, the cytotoxicity call in the experiment on HSkMC and with HepG2 was “inactive” in each case. For the same compound, in the experiment on S. aureus RN4220, the growth inhibition call was “inactive”.

For the compound `COc1ccc(NC(=O)N(C)C[C@@H]2Oc3ccc(NS(=O)(=O)c4cn(C)cn4)cc3C(=O)N([C@H](C)CO)C[C@H]2C)cc1`, the cytotoxicity call in the experiment on HSkMC and with HepG2 was “inactive” throughout. Also, the growth inhibition call in the experiment with S. aureus RN4220 was “inactive”.

As to `CCC[C@H]1CCCCCCCCCC(=O)O[C@@H]2[C@@H](O1)O[C@H](C)[C@H](O)[C@@H]2O[C@H]1O[C@@H](CO)[C@@H](O[C@@H]2O[C@@H](C)[C@H](O)[C@@H](O)[C@H]2OC(=O)[C@@H](C)CC)[C@@H](O)[C@@H]1O`, the cytotoxicity call in the experiment on HSkMC and in the experiment with HepG2 was “inactive” in each case. In the experiment with S. aureus RN4220, the growth inhibition call is “inactive”.

For `O=C(C[C@H]1C=C[C@@H](NC(=O)Nc2cc(F)ccc2F)[C@H](CO)O1)NCCCN1CCOCC1`, the cytotoxicity call in the experiment with HSkMC and with HepG2 was “inactive” throughout. Moreover, the growth inhibition call with S. aureus RN4220 is “inactive”.

As to `COc1ccc2c3c([nH]c2c1)[C@H](CO)N(C[C@]13CCN(CC1)C(=O)Nc1ccc(cc1)F)C(=O)c1ccc(cc1)F`, the cytotoxicity call with HSkMC and in the experiment on HepG2 was “inactive” throughout. For the same compound, the growth inhibition call in the experiment on S. aureus RN4220 is “inactive”.

As to `CC(=O)N(O)CCCCCNC(=O)CC(O)(CC(=O)NCCCCCN(O)C(C)=O)C(=O)O`, the cytotoxicity call in the experiment on HSkMC (human skeletal muscle cells) and with HepG2 was “inactive” throughout. Besides, the growth inhibition call with S. aureus RN4220 is “inactive”.

Take `COc1ccc2c(-c3ccc(Cl)cc3)c(C)oc2c1`: the cytotoxicity call in the experiment with HSkMC is “inactive”. The cytotoxicity call with HepG2 is “active”. In addition, in the experiment on S. aureus RN4220, the growth inhibition call is “inactive”.

As to `C[C@H]1CN([C@@H](C)CO)C(=O)c2cc(NS(=O)(=O)c3cccs3)ccc2O[C@H]1CN(C)Cc1ccc(Oc2ccccc2)cc1`, the cytotoxicity call with HSkMC and with HepG2 was “inactive” throughout. For the same compound, the growth inhibition call in the experiment on S. aureus RN4220 was “inactive”.
